From patent US20090156421A1 (published 2009)

T1: IL-13Rα1 monomer (IL-13Rα1 extracellular domain) (human, UniProt P78552 22-343)
T1 construct: extracellular domain; Expressed and purified as in Yang et al. 2006; also called IL-13RI1; IL-13R1
T1 sequence (looked up): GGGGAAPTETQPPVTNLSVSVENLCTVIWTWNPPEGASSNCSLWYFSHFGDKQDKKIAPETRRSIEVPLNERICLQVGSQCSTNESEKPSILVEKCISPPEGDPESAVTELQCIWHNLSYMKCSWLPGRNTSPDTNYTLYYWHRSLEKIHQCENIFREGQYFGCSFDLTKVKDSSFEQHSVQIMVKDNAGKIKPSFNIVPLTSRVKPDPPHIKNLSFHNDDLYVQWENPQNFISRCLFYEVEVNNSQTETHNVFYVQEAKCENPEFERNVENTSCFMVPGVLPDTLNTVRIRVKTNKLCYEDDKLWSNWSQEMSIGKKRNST

T2: IL-13Rα1 + IL-4R co-immobilised on one sensor chip surface (high affinity receptor) (human, UniProt P78552 22-343; P24394 26-232)
T2 construct: extracellular domain; The two receptors were injected separately over the same flow cell of a CM5 chip, at ratios from 1:1 to 1:10; They are not a fusion; also called IL-4R/IL-13Rα1; heterodimeric IL-13 receptor complex
T2 sequence (looked up) 1: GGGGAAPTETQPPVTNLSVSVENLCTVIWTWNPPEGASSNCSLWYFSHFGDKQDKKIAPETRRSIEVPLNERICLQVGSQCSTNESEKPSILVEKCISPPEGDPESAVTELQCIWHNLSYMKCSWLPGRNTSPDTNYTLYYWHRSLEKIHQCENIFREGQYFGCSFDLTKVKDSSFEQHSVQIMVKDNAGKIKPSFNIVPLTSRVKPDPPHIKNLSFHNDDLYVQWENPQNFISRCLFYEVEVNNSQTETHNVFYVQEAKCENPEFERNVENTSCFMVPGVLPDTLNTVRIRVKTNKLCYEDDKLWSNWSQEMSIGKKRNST
T2 sequence (looked up) 2: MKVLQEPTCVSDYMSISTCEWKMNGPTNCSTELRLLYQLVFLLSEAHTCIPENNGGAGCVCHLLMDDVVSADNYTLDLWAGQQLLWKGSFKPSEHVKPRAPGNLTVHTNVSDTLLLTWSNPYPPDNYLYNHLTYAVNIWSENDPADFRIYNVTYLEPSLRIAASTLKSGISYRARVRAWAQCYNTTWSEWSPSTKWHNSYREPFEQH

T3: Cy5-IL-13Rα1 (Cy5 labeled IL-13Rα1) (human, UniProt P78552 22-343, Cy5 label, directly labeled; site not stated)
T3 construct: extracellular domain; also called IL-13R-Cys5; Cy5-IL-13RI1
T3 sequence (looked up): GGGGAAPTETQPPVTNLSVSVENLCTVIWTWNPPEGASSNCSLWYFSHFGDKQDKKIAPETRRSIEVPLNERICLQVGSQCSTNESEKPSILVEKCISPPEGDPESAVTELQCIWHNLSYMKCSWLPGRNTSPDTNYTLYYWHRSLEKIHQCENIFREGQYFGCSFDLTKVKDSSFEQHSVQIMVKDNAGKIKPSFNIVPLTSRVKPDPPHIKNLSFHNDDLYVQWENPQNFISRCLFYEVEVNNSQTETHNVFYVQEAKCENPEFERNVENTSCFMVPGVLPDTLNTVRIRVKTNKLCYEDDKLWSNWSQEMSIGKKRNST

T4: Cy5-IL-13Rα1 plus IL-4R (500 nM) in solution (human, UniProt P78552 22-343; P24394 26-232, Cy5 label; site not stated)
T4 construct: extracellular domain; It is not a fusion; also called IL-4R/Cy5-IL-13Rα1
T4 sequence (looked up) 1: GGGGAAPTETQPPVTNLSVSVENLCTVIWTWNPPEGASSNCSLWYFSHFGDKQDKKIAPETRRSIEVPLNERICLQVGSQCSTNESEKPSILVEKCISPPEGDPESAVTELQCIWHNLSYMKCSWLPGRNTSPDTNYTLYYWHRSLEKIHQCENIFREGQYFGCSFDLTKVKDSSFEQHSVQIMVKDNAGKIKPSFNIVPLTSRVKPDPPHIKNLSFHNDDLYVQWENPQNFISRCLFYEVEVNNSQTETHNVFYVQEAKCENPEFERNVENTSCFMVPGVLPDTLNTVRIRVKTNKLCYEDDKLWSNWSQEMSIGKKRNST
T4 sequence (looked up) 2: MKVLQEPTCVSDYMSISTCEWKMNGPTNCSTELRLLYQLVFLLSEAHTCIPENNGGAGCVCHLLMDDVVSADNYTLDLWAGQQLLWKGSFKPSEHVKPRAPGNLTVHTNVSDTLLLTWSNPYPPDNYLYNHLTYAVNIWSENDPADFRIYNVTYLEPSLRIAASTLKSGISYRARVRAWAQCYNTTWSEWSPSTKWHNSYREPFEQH


What was measured:
[1] = target: T1, IL-13Rα1 monomer (IL-13Rα1 …); experiment: SPR, IL-13Rα1 immobilised
Experimental: IL-13Rα1 was immobilized on the surface of a research grade CM5 sensor chip, as follows. Each chip was activated using a 30 second pulse of N-ethyl-N-(2-dimethylaminopropyl)carbodiimide hydrochloride mixed with N-hydroxylsuccinimide (NHS-EDC). IL-13RI1 (10 μg/ml) in 10 mM sodium acetate pH 4.0 was then injected over the activated surfaces for one to two minutes to achieve surface densities between 200 and 1160 RU. All surfaces were subsequently deactivated by a 5-minute injection of 1 M ethanolamine-HCl prior to performing kinetic experiments.
(§1) Various concentrations of IL-13 or IL-13R110Q ranging from 0.325 nM to 40 nM, or buffer, were prepared in 8.1 mM Na2HPO4, 1.47 mM KH2PO4, pH 7.2, 137 mM NaCl, 2.7 mM KCl, 0.01% BSA, 3.4 mM EDTA and 0.005% Tween 20 (PBS-BET). Each solution of IL-13 and IL-13R110Q was then injected over the surface of the IL-13RI1 coated chip. Measurements were performed at 22° C., 30 μl per minute, and a collection rate of 10 Hz.
Kinetic rates were determined using the 1:1 model for the IL-13Rα1 sensor chip surface and the heterogeneous ligand model for the IL-13Rα1/IL-4R sensor chip surface in Biaevaluation software v4.1. Data shown are mean and standard deviation from at least 3 independent experiments.

[2] = target: T2, IL-13Rα1 + IL-4R co-immobilised on one …; experiment: SPR, IL-13Rα1 and IL-4R co-immobilised
Experimental: (§2) As shown in FIG. 1A (IL-13) and FIG. 1B (IL-13R110Q), the binding profiles of IL-13 and IL-13R110Q were dose-dependent, reached saturation, and at the higher concentrations, reached equilibrium. Briefly, the binding affinity of IL-13 and IL-13R110Q to IL-13Rα1 and IL-13RI1/IL-4R was measured in a label-free system, using a Biacore 3000 instrument. IL-13Rα1 (about 800 RU) was immobilized by direct amine linkage. Various concentrations of (FIG. 1A) IL-13 or (FIG. 1B) IL-13R110Q ranging from 0.325 nM to 40 nM were injected over the Il-13RI1 sensor chip surface. In order to measure the interaction of IL-13 with its high affinity receptor, both IL-13Rα1 (˜600 RU) and IL-4R (˜900 RU) were directly immobilized in a CM5 surface. Various concentrations of IL-13 (FIG. 1C) or IL-13R110Q (FIG. 1D) were injected over the surface. Data shown are triplicate injections of analyte. Data sets for IL-13 and IL-13R100Q fit well to a 1:1 interaction model and were characterized by similar rapid on and off rates.
(§3) A combination of IL-13Rα1 and IL-4R were co-immobilized on a research grade CM5 sensor chip that was activated as described in Example 1. […]
(§4) The ratio of IL-13Rα1 to IL-4R on the heterogeneous surface ranged from 1:1 to 1:10. Association and dissociation rates to each all IL-13Rα1 and IL-4R heterogeneous surfaces were analyzed for a broad range of concentrations of both IL-13 and IL-13R110Q. […]

[3] = target: T1, IL-13Rα1 monomer (IL-13Rα1 …); experiment: SPR, IL-13Rα1 immobilised, 1:1 model
Experimental: as §1
(§5) Experimental data were corrected for instrumental and bulk artifacts by double referencing a control sensor chip surface and buffer injections using Scrubber software (BioLogic Software v1.1 g) (19). The transformed data were globally fit to 1:1 binding models for experiments with the IL-13Rα1 sensor chip surface or the heterologous ligand binding model for experiments with the IL-13Rα1/IL-4R sensor chip surface using BiaEvaluation v4.1.

[4] = target: T2, IL-13Rα1 + IL-4R co-immobilised on one …; experiment: SPR, IL-13Rα1 and IL-4R co-immobilised, against IL-13Rα1 alone
Experimental: as §2, §3, §4

[5] = target: T3, Cy5-IL-13Rα1 (Cy5 labeled IL-13Rα1); experiment: TR-FRET assay 1, competition with 10 nM Eu-IL-13 for 10 nM Cy5-IL-13Rα1
Experimental: (§6) All TR-FRET experiments were performed on a 384-well black plate (Corning Costar, Acton, Mass.) in 20 μL final volume of PBS plus 0.1% BSA. For example, excitation and emission conditions for TR-FRET assay 1 and 2 were 345 nm and 665 nm, respectively. All TR-FRET measurements were taken using an Envision plate reader (Perkin Elmer) using the TR-FRET mode.
(§7) Assays were performed as described in Example 5. Competition experiments were performed by adding various concentrations of unlabeled IL-13, IL-13R110Q, or IL-13Rα1 to the Eu-IL-13 (10 nM)/Cy5-IL-13Rα1 (10 nM) binary complex with or without IL-4R (500 nM).
The decrease in TR-FRET signal was dose-dependent and reached background levels at the highest concentrations for each IL-13 and the R110Q variant.

[6] = target: T4, Cy5-IL-13Rα1 plus IL-4R (500 nM) in …; experiment: TR-FRET assay 1, competition with 10 nM Eu-IL-13, 10 nM Cy5-IL-13Rα1, 500 nM IL-4R
Experimental: as §6, §7

[7] = target: T3, Cy5-IL-13Rα1 (Cy5 labeled IL-13Rα1); experiment: TR-FRET assay 1, competition with Eu-IL-13 for Cy5-IL-13Rα1, Kd calculated from IC50
Experimental: (§8) FIGS. 6A-6F are a series of line graphs showing binding comparisons of IL-13, IL-13R110Q, and IL-13Rα1 in the formation of the binary and ternary complex measured using TR-FRET assay 1. FIGS. 6A and 6B are line graphs showing TR-FRET ratio formed by 10 nM each Eu-IL-13 and Cy-5-IL-13Rα1 with increasing concentrations of unlabeled (A) IL-13 or (B) IL-13R110Q to disrupt the binary complex. FIGS. 6C and 6D are line graphs showing TR-FRET ratio formed by 10 nM of Eu-labeled IL-13 and Cy-5-labeled IL-13Rα1 plus 500 nM of IL-4R and increasing concentrations of unlabeled (C) IL-13 (D) or IL-13R110Q to disrupt the ternary complex. FIGS. 6E and 6F are line graphs showing TR-FRET ratio formed by 10 nM each Eu-IL-13 and Cy5-IL-13Rα1 monitored after adding increasing concentrations of unlabeled IL-13Rα1 in the (E) absence and (F) presence of 500 nM of IL-4R. For all of FIGS. 6A-6F, dissociation constants were calculated from IC50 values using Equation (2). All experiments were done in duplicate and the data points were an average of two.

[8] = target: T4, Cy5-IL-13Rα1 plus IL-4R (500 nM) in …; experiment: TR-FRET assay 1, competition with Eu-IL-13, with 500 nM IL-4R, Kd calculated from IC50
Experimental: as §8

[9] = target: T2, IL-13Rα1 + IL-4R co-immobilised on one …; experiment: SPR, IL-13Rα1 and IL-4R co-immobilised, heterogeneous ligand model, component 2 (high affinity)
Description: as §5
(§9) A combination of IL-13Rα1 and IL-4R were co-immobilized on a research grade CM5 sensor chip that was activated as described in Example 1. IL-13Rα1 and IL-4R were then injected separately over the same flow cell for 1-2 minutes, or until surface densities between 200 to 2200 RU were obtained for each receptor. As described above, all surfaces were deactivated by a 5-minute injection of 1 M ethanolamine-HCl prior to performing kinetic experiments.

[10] = target: T2, IL-13Rα1 + IL-4R co-immobilised on one …; experiment: SPR, IL-13Rα1 and IL-4R co-immobilised, heterogeneous ligand model, component 1 (lower affinity)
Description: as §5, §9

[11] = target: T2, IL-13Rα1 + IL-4R co-immobilised on one …; experiment: SPR, IL-13Rα1 and IL-4R co-immobilised, heterogeneous ligand model, component 2 (high affinity); column head misprinted 'Kd 2 × 10^6'
Description: as §5, §9

[12] = target: T3, Cy5-IL-13Rα1 (Cy5 labeled IL-13Rα1); experiment: TR-FRET assay 1, direct binding: Cy5-IL-13Rα1 titrated into 10 nM Eu-IL-13
Experimental: FIGS. 5A and 5B are line graphs showing dissociation constants of Cy5-IL-13Rα1 in the absence of IL-4R (A) or in the presence of IL-4R (B) measured using TR-FRET assay 1. Increasing concentrations of Cy5-IL-13Rα1 were added to 10 nM Eu-IL-13. IL-4R was added at 500 nM. Dissociation constants were calculated from IC50 values using Equation (1). All experiments were done in duplicate and the data points were an average of two.

[13] = target: T1, IL-13Rα1 monomer (IL-13Rα1 …); experiment: TR-FRET assay 1, competition with Cy5-IL-13Rα1 for Eu-IL-13, no IL-4R, Kd calculated from IC50
Experimental: as §8

t½ (decay of binding) [1] [min]	t½ of dissociation [2] [min]	Kd [3] [nM]	koff [3] [s⁻¹]	kon [3] [M⁻¹ s⁻¹]	fold lower Kd than to IL-13Rα1 alone [4] [fold]	IC50 [5] [nM]	IC50 [6] [nM]	Kd [7] [nM]	Kd [8] [nM]	Kd [9] [nM]	koff [9] [s⁻¹]	koff [10] [s⁻¹]	kon [10] [M⁻¹ s⁻¹]	kon [11] [M⁻¹ s⁻¹]	Kd [12] [nM]	Kd [13] [nM]	Binder
~0.833	~3.83	4.88	0.014	2.87e+06	22	24	12	5.7	0.3	0.23	0.003	0.028	3.79e+06	1.38e+07	–	–	Human recombinant IL-13 (ligand, also called interleukin-13; unlabeled IL-13) not shown
–	–	–	–	–	–	–	–	–	–	–	–	–	–	–	6	4.3	Eu-IL-13 (europium chelate labeled IL-13) (ligand, europium chelate (Eu) label, directly labeled; site not stated, also called Eu-labeled IL-13) not shown
